{"source": "PubChem BioAssay AID686978", "about": "(National Center for Advancing Translational Sciences (NCATS), 2013)", "note": "Out of some 420,000 compounds screened, about 64,000 (15%) were called active. This list was built around the results that the source calls inconclusive (neither active nor inactive); the mix of calls is not that of the screen. Calls follow the shape of the dose curve; as a rule, active = well fitted inhibition curve with a large enough effect; inconclusive = small, poorly fitted or top-dose-only effect; inactive = flat fitted curve, though single readings scatter. No potency is given beside an inconclusive call; the fits are too rough. % is scaled to controls: 0 for no effect and ±100 for the full control effect; potency is read from the fitted curve at half-maximal effect; tags tell the direction and shape of the fitted curve."}
{"test": "qHTS for Inhibitors of human tyrosyl-DNA phosphodiesterase 1 (TDP1): qHTS in cells in absence of CPT; also: nearly all actives have a fitted effect of over 55% in size", "conditions": "DT40 Tdp1-/- hTDP1 cells, no CPT, ATP luminescence, 48 h; activity change, negative = growth inhibition: at 46.2 µM (top of the series)", "method_in_brief": "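Chicken DT40 Tdp1-/- cells stably complemented with human TDP1 were seeded at 400 cells/well with DMSO in place of 20 nM camptothecin. After compound pinning, cells grew at least 48 hr at 37 °C; viability read by CellTiter-Glo luminescence.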"}
{"compound": "CCNc1ccc(/C=C2\\C=Cc3ccccc32)cc1", "Potency": "inconclusive [inhibitor, single point]"}
{"compound": "O=S(=O)(Nc1cc(Sc2cccc3cccnc23)c(O)c2ccccc12)c1ccc(F)cc1", "Potency": "active: 0.92 µM"}
{"compound": "CCCC(=O)Nc1nc2c(s1)COc1ccccc1-2", "Potency": "inconclusive [inhibitor, single point]"}
{"compound": "CCOC(=O)c1c(C)oc2ncnc(Nc3cc(C)cc(C)c3)c12", "Potency": "inactive"}
{"compound": "CCCCCn1c(=O)c2ccccc2n2c(=S)[nH]nc12", "activity change, negative = growth inhibition": "inconclusive: -32.9% [inhibitor]"}
{"compound": "CCN1CCC(O)(/C=C/c2ccc(C)cc2)C(C(=O)/C=C/c2ccc(C)cc2)C1", "note": "(stereo not given)", "Potency": "active: 4.61 µM"}
{"compound": "N#CC(C(=O)NCc1ccccc1)c1nc2ccccc2nc1N1CCCC1", "note": "(stereo not given)", "Potency": "inconclusive [inhibitor, partial curve]"}
{"compound": "N#Cc1c(-c2ccccc2)nc(SCc2cccc(C(F)(F)F)c2)[nH]c1=O", "Potency": "inconclusive [inhibitor, single point]"}
{"compound": "O=[N+]([O-])c1ccccc1CN1CCN(Cc2ccccn2)CC1", "Potency": "inconclusive [inhibitor, single point]"}
{"compound": "Cc1ccc(C)c(NC(=O)Cn2nnc(C(=O)Nc3c(C)cccc3C)c2N)c1", "Potency": "inactive"}
{"compound": "CCCNC(=O)C1CCN(S(=O)(=O)c2c(C)noc2/C=C\\c2ccc(OC)cc2)CC1", "Potency": "inactive"}
{"compound": "Cc1ccc(N2CC(NC(=O)c3cccc(Cl)c3)CC2=O)cc1C", "note": "(stereo not given)", "Potency": "inconclusive [inhibitor, single point]"}
{"compound": "COc1ccc(CNC(=O)c2cnn3c(C)c(Cc4c(F)cccc4Cl)c(C)nc23)cc1", "Potency": "active: 20.6 µM"}
{"compound": "CCOC(=O)C1=C(C)N=C(SC)N(C)C1c1ccccc1", "note": "(stereo not given)", "Potency": "inactive"}
{"compound": "Cc1ccc(S(=O)(=O)N2CCN(C(=O)NCc3ccc(F)cc3)CC2)c(C)c1", "Potency": "inconclusive [inhibitor, partial curve]"}
{"compound": "CC1(C)CC(=O)C=C(c2ccc(COC(=O)c3cc(F)cc(F)c3)cc2)C1=O", "Potency": "inconclusive [inhibitor, partial curve]"}
{"compound": "CCOc1ccc(OCc2cccc(C(=O)N3CCCCCC3)c2)cc1", "Potency": "inconclusive [inhibitor, single point]"}
{"compound": "COc1ccc(N(C(=O)c2ccc(C(C)(C)C)cc2)S(=O)(=O)c2ccc(Cl)cc2)cc1", "Potency": "active: 20.6 µM"}
{"compound": "O=C(NN1CCOCC1)c1cc(-c2cccs2)nc2ccccc12", "Potency": "inconclusive [inhibitor, single point]"}
{"compound": "COc1ccc(C2/C=C\\CN(Cc3ccc(N(C)C)cc3)CC(=O)N2Cc2ccc(F)cc2)cc1", "note": "(stereo not given)", "Potency": "inconclusive [inhibitor, single point]"}
{"compound": "CCN1C(=O)c2ccccc2Sc2ccc(NC(=O)Nc3cccc([N+](=O)[O-])c3C)cc21", "Potency": "inconclusive [inhibitor, single point]"}
{"compound": "O=C(c1cc(COc2ccc(F)cc2Cl)on1)N1CC2C[C@@H]3CC1C[C@H](C2)C3", "Potency": "inconclusive [inhibitor, full curve, poor fit]"}
{"compound": "CCC1=C(c2ccc(C)cc2)S(=O)(=O)N=C1N1CCC(C(=O)NCc2ccc(N(C)C)cc2)CC1", "Potency": "active: 23.1 µM"}
{"compound": "COc1ccc(/C=C2\\SC(N)=NC2=O)cc1Br", "Potency": "inconclusive [inhibitor, partial curve]"}
{"compound": "COc1cc(O)cc(O)c1", "Potency": "inconclusive [inhibitor, partial curve]"}
{"compound": "COc1ccc(C2c3c(n(C)c4ccccc34)C(=O)N2CC(=O)Nc2cccc(Cl)c2C)cc1", "note": "(stereo not given)", "Potency": "inconclusive [inhibitor, single point]"}
{"compound": "CC(Oc1ccc(Cl)cc1Cl)c1ccnc2nc(N3CCOCC3)nn12", "note": "(stereo not given)", "Potency": "active: 18.4 µM"}
{"compound": "Cc1cccc(N2CCN(C(=O)c3c(C)nn(Cc4ccccc4Cl)c3C)CC2)c1C", "Potency": "active: 10.3 µM"}
{"compound": "CCCc1cc(=O)[nH]c(SCC(=O)NCCC2=CCCCC2)n1", "Potency": "inactive"}
{"compound": "CCCCC1(Cc2cccc([N+](=O)[O-])c2)C(=O)N(c2ccccc2)N(c2ccccc2)C1=O", "Potency": "inconclusive [inhibitor, single point]"}
{"compound": "Cc1ccc(S(=O)(=O)N2CCN(CC(=O)N/N=C\\c3ccc(O)c(O)c3)CC2)cc1", "Potency": "inconclusive [inhibitor, single point]"}
{"compound": "CCC(C)N(C(=O)CSc1ccc(NC(C)=O)cc1)C1CCS(=O)(=O)C1", "note": "(stereo not given)", "Potency": "inactive"}
{"compound": "O=C(CS(=O)(=O)c1ccccc1)Nc1nc(-c2ccccc2)cs1", "Potency": "inconclusive [inhibitor, single point]"}
{"compound": "CCCCOc1ccc(C(=O)NCc2nnnn2-c2ccc(C)c(C)c2)cc1", "Potency": "inconclusive [inhibitor, single point]"}
{"compound": "CCOC(=O)C(C)n1ncn2cccc2c1=O", "note": "(stereo not given)", "Potency": "inactive"}
{"compound": "COc1ccc(-c2nc(N)nc(C)c2Oc2ccccc2Br)c(O)c1", "Potency": "inconclusive [inhibitor, single point]"}
{"compound": "COc1ccc(-n2c(=S)[nH]c3cc(C(=O)NC4CCCCC4)ccc3c2=O)c(OC)c1", "Potency": "inconclusive [inhibitor, single point]"}
{"compound": "CCS(=O)(=O)N1Cc2ccccc2CC1C(=O)Nc1cccc(S(=O)(=O)N(C)C)c1", "note": "(stereo not given)", "Potency": "inactive"}
{"compound": "COc1ccc(CNc2nc3ccccc3n2C)c(OC)c1", "Potency": "active: 16.4 µM"}
{"compound": "COC(=O)c1c(NC(=O)/C(C#N)=C/c2ccccc2)sc2c1C(C(=O)OC)CC2", "note": "(stereo not given)", "Potency": "inactive"}
{"compound": "CCc1ccccc1Nc1sc(C(=O)c2cccc(OC)c2)c(N)c1S(=O)(=O)c1ccccc1", "Potency": "inconclusive [inhibitor, single point]"}
{"compound": "COc1ccc(-n2c(=S)[nH]c3cc(C(=O)Nc4ccccc4OC)ccc3c2=O)c(OC)c1", "Potency": "inconclusive [inhibitor, single point]"}
{"compound": "CNS(=O)(=O)c1cccc2nsnc12", "Potency": "active: 0.0073 µM"}
{"compound": "O=C(CNC(=O)c1ccc(Br)o1)OCC(=O)c1cccc([N+](=O)[O-])c1", "Potency": "inconclusive [inhibitor, single point]"}
{"compound": "CC(=O)Nc1cccc(/C(C)=N/NC(=S)NC(C)C)c1", "Potency": "active: 4.61 µM"}
{"compound": "O=C(NCc1ccccn1)C1CCCN(S(=O)(=O)c2cc(Cl)ccc2Cl)C1", "note": "(stereo not given)", "Potency": "active: 8.2 µM"}
{"compound": "O=C(/C(=C/c1ccccc1)c1ccccc1)N1CCCCC1", "Potency": "inconclusive [inhibitor, single point]"}
{"compound": "CCOC(=O)N1CCc2c(sc3c2c(=O)n(-c2ccc(CC)cc2)c(=O)n3C)C1", "Potency": "inconclusive [inhibitor, single point]"}
{"compound": "Cc1ccc(CNC(=O)CCS(=O)(=O)c2ccc3nc(C)sc3c2)cc1", "Potency": "inconclusive [inhibitor, single point]"}
{"compound": "CC(C)COc1ccc(CC(=O)NO)cc1", "Potency": "inconclusive [inhibitor, single point]"}
{"compound": "O=[N+]([O-])c1ccc(NC(=S)N/C(=N/CS(=O)(=O)c2ccccc2)c2ccccc2)cc1", "Potency": "active: 23.1 µM"}
{"compound": "CCN(CC(=O)NC1CCCCCC1)S(=O)(=O)c1ccccc1", "Potency": "inconclusive [inhibitor, single point]"}
{"compound": "Cc1cccc(NC(=S)NN2CCN(C)CC2)c1", "Potency": "inactive"}
{"compound": "COC(=O)C1CCN(CCCOc2ccc(CN3CCN(c4ccc([N+](=O)[O-])cc4)CC3)cc2)CC1", "Potency": "active: 20.6 µM"}
{"compound": "CCOc1ccc(NC(=O)Nc2ccc(N(C)C(C)=O)cc2)cc1", "Potency": "inconclusive [inhibitor, single point]"}
{"compound": "CCNC(=S)Nc1ccc2c(c1)c(=O)n(C)n2-c1cc(C)cc(C)c1", "Potency": "inconclusive [inhibitor, single point]"}
{"compound": "COc1ccc(S(=O)(=O)Nc2cccc(N(C)S(C)(=O)=O)c2)cc1Br", "Potency": "active: 20.6 µM"}
{"compound": "O=C(NCc1ccc(Cl)cc1Cl)Nc1ccccc1", "Potency": "inconclusive [inhibitor, single point]"}
{"compound": "CCCSc1ncc(Cl)c(C(=O)N(Cc2ccc(Cl)cc2)Cc2ccco2)n1", "Potency": "inconclusive [inhibitor, single point]"}
{"compound": "COc1cccc(CN2CCN(c3nc4nonc4nc3N3CCCCC3)CC2=O)c1", "Potency": "inconclusive [inhibitor, single point]"}
{"compound": "Cc1cc(Cl)ccc1NC(=O)CCN1C(=O)NC(C)(C)C1=O", "Potency": "inactive"}
{"compound": "COc1ccc(Cl)cc1NS(=O)(=O)c1cccc(C(=O)NCCCN2CCCC2=O)c1", "Potency": "inactive"}
{"compound": "CCc1ccccc1NC(=O)Cn1c(=O)ccc2cc(S(=O)(=O)N3CCCC3)ccc21", "Potency": "inconclusive [inhibitor, single point]"}
{"compound": "C=C(C)C1Cc2c(C)nn(-c3cccc4cccnc34)c2C1", "note": "(stereo not given)", "Potency": "inconclusive [inhibitor, single point]"}
{"compound": "CC(=O)Nc1ccc(NC(=O)COC(=O)c2c(C)nn(-c3ccccc3)c2C)cc1", "Potency": "inconclusive [inhibitor, single point]"}
{"compound": "CC(C)(C)c1ccc(OCc2ccc(C(=O)N/N=C/c3ccc([N+](=O)[O-])cc3)o2)cc1", "Potency": "active: 20.6 µM"}
{"compound": "Cc1ccc(CC(=O)c2ccc(Cl)cc2)cc1", "Potency": "inactive"}
{"compound": "C[C@H](CO)N1C[C@H](C)[C@@H](CN(C)C(=O)NC2CCCCC2)Oc2ccc(NC(=O)Nc3ccccc3)cc2C1=O", "Potency": "inactive"}
{"compound": "Cc1ccccc1OCC(=O)N1CCC(c2nc3ccccc3s2)CC1", "Potency": "inconclusive [inhibitor, single point]"}
{"compound": "Cc1ccc2c(c1)nc1c3ccccc3nc(-c3ccccc3N)n21", "Potency": "inconclusive [inhibitor, single point]"}
